This is one part of the list.
Assays:
HSkMC = human skeletal muscle cells; assay: cytotoxicity call (relative viability < 0.9); conditions: 10 µM
HepG2 = assay: cytotoxicity call (relative viability < 0.9); conditions: 10 µM
S. aureus RN4220 = assay: growth inhibition call (relative growth <= 0.2); conditions: 50 µM

| SMILES | cytotoxicity call (HSkMC) | cytotoxicity call (HepG2) | growth inhibition call (S. aureus RN4220) |
| --- | --- | --- | --- |
| CC(=O)NCCCC[C@@H]1NC(=O)[C@@H]2C[C@H](C(=O)NCCCC[N+](C)(C)C)[C@H](c3cccc(OCCO)c3)N2C1=O | inactive | active | inactive |
| C[C@@H]1CN([C@H](C)CO)C(=O)Cc2cc(NS(=O)(=O)c3ccc(Cl)cc3)ccc2O[C@@H]1CN(C)C(=O)Nc1ccc(C(F)(F)F)cc1 | inactive | inactive | inactive |
| C[C@H](CO)N1C[C@H](C)[C@H](CN(C)S(=O)(=O)c2cn(C)cn2)Oc2ncc(C#Cc3ccc(C(F)(F)F)cc3)cc2C1=O | inactive | inactive | inactive |
| COc1ccc([C@H]([C@H](Cc2ccccc2)OC(C)=O)N(C[C@H](/C=C/c2ccccc2)NC(=O)C(Cl)(Cl)Cl)[C@@H](Cc2ccccc2)C(OC)OC)cc1 | inactive | inactive | inactive |
| COc1ccc(NC(=O)Nc2ccc3c(c2)CC(=O)N([C@H](C)CO)C[C@@H](C)[C@H](CN(C)C(=O)Nc2ccc(C(F)(F)F)cc2)O3)cc1 | inactive | inactive | inactive |
| COc1ccc(S(=O)(=O)N(C)C[C@@H]2Oc3ccc(NS(C)(=O)=O)cc3C(=O)N([C@@H](C)CO)C[C@H]2C)cc1 | inactive | inactive | inactive |
| C[C@H](CO)N1C[C@H](C)[C@H](CN(C)Cc2ccc(Oc3ccccc3)cc2)Oc2c(NS(=O)(=O)c3ccc(F)cc3)cccc2C1=O | inactive | inactive | inactive |
| CC(C)(C)c1cc(C(C)(C)C)n(-c2ccc(-n3cccc3)cc2)n1 | inactive | inactive | inactive |
| CC(=O)O[C@H]1CC[C@]2(C)[C@H]3CC[C@@]4(C)[C@H](c5ccoc5)OC(=O)[C@H]5O[C@]54[C@]3(C)[C@H](OC(C)=O)C[C@H]2C1(C)C | inactive | inactive | inactive |
| COc1ccc(C#Cc2cnc3c(c2)C(=O)N([C@@H](C)CO)C[C@H](C)[C@H](CN(C)C(=O)CN(C)C)O3)cc1 | inactive | inactive | inactive |
| C[C@@H]1CN([C@H](C)CO)S(=O)(=O)c2ccc(C#C[C@@H](C)O)cc2O[C@@H]1CN(C)C | inactive | inactive | inactive |
| C=C/C=C/[C@@H]1C(=C)CN([C@@H](Cc2ccccc2)C(=O)OC)[C@H]1[C@@H](O)CCn1cc(-c2ccc(C(=O)NO)cc2)nn1 | inactive | inactive | inactive |
| C[C@@H]1CN([C@@H](C)CO)C(=O)Cc2cc(NC(=O)Cn3cnnn3)ccc2O[C@@H]1CN(C)S(=O)(=O)c1ccc(Cl)cc1 | inactive | inactive | inactive |
| O=C1NCCN1CCNC(=S)NC1CC1 | inactive | inactive | inactive |
| C[C@@H]1CN([C@@H](C)CO)C(=O)c2cc(NC(=O)Cn3cnnn3)ccc2O[C@H]1CN(C)C(=O)Nc1ccc(F)cc1 | inactive | inactive | inactive |
| COc1ccc(OC)c([C@H]2C(C(=O)c3c(C)nc4c(C)cccn34)=C(O)C(=O)N2CCN2CCOCC2)c1 | inactive | inactive | inactive |
| Cc1ccc(S(=O)(=O)N(C)C[C@@H]2OCCCC[C@@H](C)Oc3ccc(NS(=O)(=O)c4ccc(F)cc4)cc3C(=O)N([C@@H](C)CO)C[C@H]2C)cc1 | inactive | inactive | inactive |
| CCN(CC)C(=O)c1ccc(O)c(OC)c1 | inactive | inactive | inactive |
| O=C(CCCCCNC(=O)OCCCCO[C@@H]1C[C@H](c2ccccc2)C=C(C(=O)N2CCOCC2)O1)NO | inactive | inactive | inactive |

| SMILES | cytotoxicity call (HSkMC) | cytotoxicity call (HepG2) | growth inhibition call (S. aureus RN4220) |
| --- | --- | --- | --- |
| CCOc1ccc(S(N)(=O)=O)cc1 | inactive | inactive | inactive |
| C[C@@H]1CN([C@@H](C)CO)C(=O)c2cc(NS(=O)(=O)c3ccc(F)cc3)ccc2O[C@@H](C)CCCCO[C@H]1CN(C)S(=O)(=O)c1cn(C)cn1 | inactive | inactive | inactive |
| Cc1cc(C(=O)Nc2cccc3c2O[C@@H](CN(C)S(=O)(=O)c2c(C)noc2C)[C@@H](C)CN([C@H](C)CO)C3=O)n(C)n1 | inactive | inactive | inactive |
| CC(C)CC#Cc1ccc2c(c1)O[C@@H](CN(C)Cc1cncnc1)[C@@H](C)CN([C@@H](C)CO)S2(=O)=O | inactive | inactive | inactive |
| C[C@@H]1CCCCO[C@H](CN(C)S(C)(=O)=O)[C@@H](C)CN([C@H](C)CO)C(=O)c2cc(NC(=O)CCCN(C)C)ccc2O1 | inactive | inactive | inactive |
| Cc1c(C(=O)Nc2ccc(Oc3ccnc4cc(OCC(C)(C)O)ccc34)c(F)c2)c(=O)n(-c2ccccc2)n1C | active | inactive | inactive |
| COc1ccc(CN(C)C[C@@H]2OCCCC[C@@H](C)Oc3ccc(NC(=O)Cc4ccccc4)cc3C(=O)N([C@@H](C)CO)C[C@@H]2C)cc1 | inactive | inactive | inactive |
| N#CCN1CCNCC1 | inactive | inactive | inactive |
| C[C@@H]1CN([C@@H](C)CO)C(=O)c2cccc(NC(=O)c3ccncc3)c2O[C@@H]1CN(C)S(=O)(=O)c1cccs1 | inactive | active | inactive |
| C[C@@H]1CN([C@@H](C)CO)S(=O)(=O)c2ccc(-c3cncnc3)cc2O[C@@H]1CN(C)C(=O)C1CCCCC1 | inactive | inactive | inactive |
| C[C@H]1CN([C@@H](C)CO)C(=O)Cc2cc(NC(=O)Nc3cccc4ccccc34)ccc2O[C@@H]1CN(C)S(=O)(=O)c1cccs1 | inactive | inactive | inactive |
| Cc1noc(C)c1S(=O)(=O)/N=C/N(C)C | inactive | inactive | inactive |
| C[C@H]1CCCCO[C@H](CN(C)Cc2ccc3c(c2)OCO3)[C@@H](C)CN([C@@H](C)CO)C(=O)c2cc(NC(=O)Cc3ccccc3)ccc2O1 | inactive | inactive | inactive |
| COc1ccc(CN(C)C[C@@H]2OCCCC[C@H](C)Oc3ccc(NS(=O)(=O)c4c(C)noc4C)cc3C(=O)N([C@H](C)CO)C[C@@H]2C)cc1 | inactive | inactive | inactive |
| C[C@@H]1CN([C@H](C)CO)S(=O)(=O)c2ccc(C#Cc3ccncc3)cc2O[C@H]1CN(C)C(=O)c1ccncc1 | inactive | active | inactive |
| CC(C)(Sc1ccc(CCN(CCCCC2CCCCC2)C(=O)NC2CCCCC2)cc1)C(=O)O | inactive | inactive | active |
| COc1ccc(CN(C)C[C@H]2OCCCC[C@@H](C)Oc3ccc(NC(=O)Nc4ccc(OC)cc4)cc3C(=O)N([C@H](C)CO)C[C@@H]2C)cc1 | inactive | inactive | inactive |
| CC1=C(C(N)=O)[C@@H](c2cccnc2)n2nnnc2N1 | inactive | inactive | inactive |
| Cn1nc(CN2CCCC2=O)c2c1CN(C(=O)CO)C2 | inactive | inactive | inactive |

— the antibiotic and cytotoxicity screens of Wong et al. (2023)
